{"source": "the supplement of paper PMC11383711", "binders": {"B1": {"name": "K77-2G04 (protein)", "chain 1": "EVQLVQSGGGVVRPGGSLRLSCAGSGFAFDEYGMTWVRQVPGKGLEWVSNINWHGNSAAYADSVKGRFTISRDNARNSLYLQMNRLRAEDTALYYCARNRQPDTSMDYFYYFGMNVWGQGTTVTVSS", "chain 2": "DIQMTQSPSSLSASVGDRVTISCQASQDINKYLSWYQQKPGKAPKLLIYDASNLETGVPSRFSGSGSGTEFTLTISSLQPADIATYYCQQYDNVPVTFGRGTNLEIK"}, "B2": {"name": "AG4-C01 (protein)", "chain 1": "VQLQESGPGLVKPSETLSLTCTVSGGSVTSGNYHWSWIRQSPGKGLEWIAYKYYSGNTKYNPSLKSRVTISLDTSKNQISLKMTSVTAEDTAVYYCARVVLYGSGSYMWFDPWGQGTLVTVSS", "chain 2": "DIQMTQSPSSLSASVGDRVTITCRASQNIITYLHWYQQKPGKAPKLLIYATSSLQSGVPSRFSGSGSGTDFTLTISSLQPEDFATYYCQQSFSTLLTFGGGTKVEIK"}, "B3": {"name": "AG9-4B03 (protein)", "chain 1": "QVQLQESGPGLVKPSETLSLTCADPHSLISSRYYWGWIRQPPGKGLEWIGTIFQSGDTFYNPSLESRVTLFVDTSKNQTSLQLTSVTAADAAVYYCARGLAATGDYYWYALDVWGQGTTVTVSS", "chain 2": "EIVLTQSPGTLSLSPGERATLSCRASHSISSGYLAWYQHKPGQAPRLVISDTSDRATGIPDRFSGSGSGTDFTLTFSRLEPEDSAVYYCHQYGILPWTFGQGTKVEIK"}, "B4": {"name": "236-14-IgG-1B03 (protein)", "chain 1": "QVQLVQSGAEVKKPGASVKVSCKASGYTFADYYIHWVRQAPGQGLEWMGWMNPNTGGTNYAQKFQGRVTMTRDTSIRTAYMELSRLRSDDTAIFYCARDLGDTTTSDYWGQGTLVTVSS", "chain 2": "SYELTQPPSVSVSPGQTARITCSGDALPQQYASWYQQRPGQAPVLVIYKDTERPSGIPERFSGSTSGTTVTLTISGVQAEDEADYYCQSVDITATFGFGGGTKLTVL"}, "B5": {"name": "C8-B04 (protein)", "chain 1": "VQLQESGPGLVKPSETLSLTCTVSGGSIGNYYWNWVRQPPGKGLEWIGYVYNNGGTSYNTSLKSRVTISVDTSKKQFSLRLSSVTAADTAMYYCARLGFGEVFSFKRYYYYGLDVWGRGTTVTVSS", "chain 2": "DIVMTQSPDTLSLSPGERATLSCRASQSVTSSSLAWYQQKVGQSPRLLIYGASTRATGTPARFSGSGSETDFTLTISSLEPEDFAVYYCQQYGSSVLTFGPGTKVDIK"}, "B6": {"name": "antibody 2F04 (protein)", "chain 1": "EVQLLESGGGLVQPGGSLRLSCAASGFTFSAYSMSWVRQARGKGLEWVSGIGGSGVSIHYADSVKGRFTISRDNSKNTVYLQMNSLRAEDTAVYYCAKSRAWDLKGWFDPWGQGTLVTVSS", "chain 2": "DIVMTQSPDSLAVSLGERATINCKSSQTVLLNSNNKNSLVWYQQKPGQPPKLLIYWASTRESGVPDRFSGSGSGTDFTLTISSLQVEDVAVYYCQQYYSAPLTFGGGTKVEIK"}}, "note": "Some of the results follow. Binding of human antibodies (heavy:light variable regions, tested as scFv in one mRNA-display pool) to influenza hemagglutinin, with or without the stem antibody CR9114 bound first. Score = (mean enrichment − median) / interquartile range of that screen; higher = more enriched, 0 = typical non-binder. Active = above the paper's cut-off per screen: stems 28; unblocked H1 Solomon Islands 5, H1 Michigan 3, H3 5, H5 19, H7 2.85, both B 5; blocked 9, 7, H5 10, H7 10, B Phuket 10, B Lee 11.5. Scores are scaled within each screen and are no affinities; replicates correlate at about 0.6 to 0.9, and antibodies rare in the pool are noisier."}
{"molecular_target": "Influenza A H1N1 A/Michigan/45/2015 hemagglutinin ectodomain", "experiment": "mRNA display binding score; higher = more enriched on the antigen", "settings": "antigen blocked with: 2 µM CR9114 IgG", "procedure": "(§1)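 A pool of natively paired antibodies, displayed as scFv on mRNA, was selected once on antigen-coated beads and sequenced before and after; two replicates.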"}
{"binder": "B1", "mRNA display binding score": "inactive: -0.16"}
{"binder": "B2", "mRNA display binding score": "inactive: 1.33"}
{"binder": "B3", "mRNA display binding score": "inactive: 0.395"}
{"binder": "B4", "mRNA display binding score": "inactive: -0.113"}
{"binder": "B5", "mRNA display binding score": "inactive: 0.368"}
{"binder": "B6", "mRNA display binding score": "inactive: 0.403"}
{"molecular_target": "Influenza A H1N1 A/Michigan/45/2015 hemagglutinin ectodomain", "experiment": "mRNA display binding score; higher = more enriched on the antigen", "settings": "antigen blocked with: nothing", "procedure": "as §1"}
{"binder": "B1", "mRNA display binding score": "inactive: 0.104"}
{"binder": "B2", "mRNA display binding score": "inactive: 0.244"}
{"binder": "B3", "mRNA display binding score": "inactive: -0.242"}
{"binder": "B4", "mRNA display binding score": "inactive: -0.598"}
{"binder": "B5", "mRNA display binding score": "inactive: 1.84"}
{"binder": "B6", "mRNA display binding score": "inactive: 0.219"}
{"molecular_target": "Influenza A H1N1 A/Solomon Islands/3/2006 hemagglutinin ectodomain", "experiment": "mRNA display binding score; higher = more enriched on the antigen", "settings": "antigen blocked with: 2 µM CR9114 IgG", "procedure": "as §1"}
{"binder": "B1", "mRNA display binding score": "inactive: -0.692"}
{"binder": "B2", "mRNA display binding score": "inactive: 0.535"}
{"binder": "B3", "mRNA display binding score": "inactive: 0.0694"}
{"binder": "B4", "mRNA display binding score": "inactive: 0.0692"}
{"binder": "B5", "mRNA display binding score": "inactive: 0.133"}
{"binder": "B6", "mRNA display binding score": "inactive: 0.129"}
{"molecular_target": "Influenza A H1N1 A/Solomon Islands/3/2006 hemagglutinin ectodomain", "experiment": "mRNA display binding score; higher = more enriched on the antigen", "settings": "antigen blocked with: nothing", "procedure": "as §1"}
{"binder": "B1", "mRNA display binding score": "inactive: 1.22"}
{"binder": "B2", "mRNA display binding score": "inactive: -0.435"}
{"binder": "B3", "mRNA display binding score": "inactive: -0.32"}
{"binder": "B4", "mRNA display binding score": "inactive: -0.548"}
{"binder": "B5", "mRNA display binding score": "inactive: 0.788"}
{"binder": "B6", "mRNA display binding score": "inactive: -0.244"}
{"molecular_target": "Influenza A H3N2 A/Singapore/INFIMH-16-0019/2016 hemagglutinin ectodomain", "experiment": "mRNA display binding score; higher = more enriched on the antigen", "settings": "antigen blocked with: nothing", "procedure": "as §1"}
{"binder": "B1", "mRNA display binding score": "inactive: 2.39"}
{"binder": "B2", "mRNA display binding score": "inactive: -0.272"}
{"binder": "B3", "mRNA display binding score": "inactive: -0.203"}
{"binder": "B4", "mRNA display binding score": "inactive: -0.517"}
{"binder": "B5", "mRNA display binding score": "inactive: 1.36"}
{"binder": "B6", "mRNA display binding score": "active: 12.8"}
{"molecular_target": "Influenza A H5N1 A/Qinghai/1A/2005 hemagglutinin ectodomain", "experiment": "mRNA display binding score; higher = more enriched on the antigen", "settings": "antigen blocked with: 2 µM CR9114 IgG", "procedure": "as §1"}
{"binder": "B1", "mRNA display binding score": "inactive: -1.16"}
{"binder": "B2", "mRNA display binding score": "inactive: 0.929"}
{"binder": "B3", "mRNA display binding score": "inactive: -0.0385"}
{"binder": "B4", "mRNA display binding score": "inactive: -0.881"}
{"binder": "B5", "mRNA display binding score": "inactive: 0.28"}
{"binder": "B6", "mRNA display binding score": "inactive: 0.426"}
{"molecular_target": "Influenza A H5N1 A/Qinghai/1A/2005 hemagglutinin ectodomain", "experiment": "mRNA display binding score; higher = more enriched on the antigen", "settings": "antigen blocked with: nothing", "procedure": "as §1"}
{"binder": "B1", "mRNA display binding score": "inactive: 0.587"}
{"binder": "B2", "mRNA display binding score": "inactive: -0.406"}
{"binder": "B3", "mRNA display binding score": "inactive: -0.178"}
{"binder": "B4", "mRNA display binding score": "inactive: -0.521"}
{"binder": "B5", "mRNA display binding score": "inactive: 0.661"}
{"binder": "B6", "mRNA display binding score": "inactive: -0.0581"}
{"molecular_target": "Influenza A H7N9 A/Shanghai/2/2013 hemagglutinin ectodomain", "experiment": "mRNA display binding score; higher = more enriched on the antigen", "settings": "antigen blocked with: 2 µM CR9114 IgG", "procedure": "as §1"}
{"binder": "B1", "mRNA display binding score": "inactive: -1.41"}
{"binder": "B2", "mRNA display binding score": "inactive: -0.187"}
{"binder": "B3", "mRNA display binding score": "inactive: -0.473"}
{"binder": "B4", "mRNA display binding score": "inactive: 0.055"}
{"binder": "B5", "mRNA display binding score": "inactive: -0.192"}
{"binder": "B6", "mRNA display binding score": "inactive: 0.192"}
{"molecular_target": "Influenza A H7N9 A/Shanghai/2/2013 hemagglutinin ectodomain", "experiment": "mRNA display binding score; higher = more enriched on the antigen", "settings": "antigen blocked with: nothing", "procedure": "as §1"}
{"binder": "B1", "mRNA display binding score": "inactive: -0.284"}
{"binder": "B2", "mRNA display binding score": "inactive: 0.229"}
{"binder": "B3", "mRNA display binding score": "inactive: -0.0673"}
{"binder": "B4", "mRNA display binding score": "inactive: -0.634"}
{"binder": "B5", "mRNA display binding score": "inactive: 1.88"}
{"binder": "B6", "mRNA display binding score": "inactive: 0.535"}
{"molecular_target": "Influenza B/Lee/1940 hemagglutinin ectodomain", "experiment": "mRNA display binding score; higher = more enriched on the antigen", "settings": "antigen blocked with: 2 µM CR9114 IgG", "procedure": "as §1"}
{"binder": "B1", "mRNA display binding score": "inactive: 6.76"}
{"binder": "B2", "mRNA display binding score": "inactive: -0.227"}
{"binder": "B3", "mRNA display binding score": "inactive: -0.554"}
{"binder": "B4", "mRNA display binding score": "inactive: 0.443"}
{"binder": "B5", "mRNA display binding score": "inactive: -0.429"}
{"binder": "B6", "mRNA display binding score": "inactive: -0.231"}
{"molecular_target": "Influenza B/Lee/1940 hemagglutinin ectodomain", "experiment": "mRNA display binding score; higher = more enriched on the antigen", "settings": "antigen blocked with: nothing", "procedure": "as §1"}
{"binder": "B1", "mRNA display binding score": "active: 43.1"}
{"binder": "B2", "mRNA display binding score": "inactive: 0.254"}
{"binder": "B3", "mRNA display binding score": "inactive: -0.202"}
{"binder": "B4", "mRNA display binding score": "inactive: -0.143"}
{"binder": "B5", "mRNA display binding score": "inactive: 0.287"}
{"binder": "B6", "mRNA display binding score": "inactive: 0.00111"}
{"molecular_target": "Influenza B/Phuket/3073/2013 hemagglutinin ectodomain", "experiment": "mRNA display binding score; higher = more enriched on the antigen", "settings": "antigen blocked with: 2 µM CR9114 IgG", "procedure": "as §1"}
{"binder": "B1", "mRNA display binding score": "inactive: 2.02"}
{"binder": "B2", "mRNA display binding score": "inactive: -0.0611"}
{"binder": "B3", "mRNA display binding score": "inactive: -0.235"}
{"binder": "B4", "mRNA display binding score": "inactive: -0.463"}
{"binder": "B5", "mRNA display binding score": "inactive: 0.177"}
{"binder": "B6", "mRNA display binding score": "inactive: 0.309"}
{"molecular_target": "Influenza B/Phuket/3073/2013 hemagglutinin ectodomain", "experiment": "mRNA display binding score; higher = more enriched on the antigen", "settings": "antigen blocked with: nothing", "procedure": "as §1"}
{"binder": "B1", "mRNA display binding score": "inactive: 0.832"}
{"binder": "B2", "mRNA display binding score": "inactive: 0.207"}
{"binder": "B3", "mRNA display binding score": "inactive: -0.304"}
{"binder": "B4", "mRNA display binding score": "inactive: -0.277"}
{"binder": "B5", "mRNA display binding score": "inactive: 0.252"}
{"binder": "B6", "mRNA display binding score": "inactive: 0.0802"}
